± gives the standard deviation of the averaged measurements. Some of the results follow.

The experiment relates to PfAP2-EXP AP2 domain (GST-tagged). The experiment can be described thus: gcPBM binding intensity (ln(normalized median fluorescence intensity)); higher = stronger DNA binding. The essentials: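 An Agilent 4 × 180k array of primer-extended double-stranded 36-bp intergenic genomic probes, with negative controls, was incubated for 1 h with GST-tagged P. falciparum DNA-binding domains expressed in E. coli. Alexa488 anti-GST antibody detected bound protein, scanned at 488 nm. Binding intensity is the highest Masliner-normalised natural-log median intensity across replicate spots of either probe orientation.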
Regarding “ATTATATAATATAATGCATGTGTTAATGAAAAATCT [TGCATGCA_site426]”, the “gcPBM binding intensity (ln)” value amounted to 8.7 ± 0.48. The result for “TTATGATAACTTTGCACACACTTAGGAAAAGTTATG [CACACA_site6836]” reads 8.43 ± 0.27; that for “CAAAGCATTTTATCTACACACATATATAAATAAATA [CACACA_site7500]”, 8.27 ± 0.47; that for “ATCTTTATTTTTAGCGCACACATAAAATAATAATAA [CACACA_site3458]”, 8.82 ± 0.28. On to “TGATGCAAGATATATACACACATATAAATATAAATA [CACACA_site7429]”, for which the “gcPBM binding intensity (ln)” value was 8.5 ± 0.47. “TTTTTTTTTTTATGTGCACACAAAAGATGCTTATAT [CACACA_site2347]”: the “gcPBM binding intensity (ln)” value was determined as 9.01 ± 0.16. The result for “TATTTTAACTTTTTTTCCTTTATTCATTTTTTTTTC [CACACA_negctrl_site971]” reads 8.59 ± 0.57; that for “ATAATTCATGTTTAGTGTACAAAAAATTAAAGCAAC [XGTACX_site8891]”, 8.97 ± 0.28; that for “TATATATATATAATATGTACATATATATATTCTTAA [XGTACX_site6154]”, 9.58 ± 0.31.

With “AAATAATTTATATGTAGTACATGTTGTAGATAATTT [XGTACX_site1031]”, the “gcPBM binding intensity (ln)” value amounted to 8.69 ± 0.21.

As for “ATGCATCATTTATTTGCACACCTATTATATACTTTT [CACACA_site2097]”, the “gcPBM binding intensity (ln)” value stood at 8.83 ± 0.21. As to “TGATTATATAAAAAAAAGAAAAAAAAAAAAAAAAAA [CACACA_negctrl_site819]”, the “gcPBM binding intensity (ln)” value is 8.07 ± 0.33. The result for “TAAAAAAAAAAAAAAAGTACCCATACTATATTACAT [XGTACX_site946]” reads 8.13 ± 0.46; that for “GTAAAAATTTCATATTCACACACAAAAAAAAAAAAT [CACACA_site8457]”, 8.69 ± 0.49; that for “TTACTAAACTTATATGTACACACATATAACATTAAT [CACACA_site8710]”, 8.64 ± 0.32. In the case of “AAGAATTTTACAAAATGTACTTATGTTTTGTTTTAC [XGTACX_site5632]”, the “gcPBM binding intensity (ln)” value is 8.38 ± 0.32. Next, “AGTAGTCTGGAGAAGAGTACATAGTATCTGATAACC [XGTACX_site2044]”: 8.8 ± 0.42; “ATTGAAAATTATTTACCTTCTTTGAAAGAACAAATG [CACACA_negctrl_site1736]”: 8.21 ± 0.44. In the case of AAAAATAAAATGATGGTGCACATAAAGTATGGTTAC, the “gcPBM binding intensity (ln)” value amounted to 9.38 ± 0.23. For the sequence “ATAAATAAATTTATACGTACACATAATATATATATA [XGTACX_site4634]”, the “gcPBM binding intensity (ln)” value was 9.61 ± 0.18. Next, “AATCCACAAAGACACACACACACATATATATATATA [CACACA_site1269]”: 10.2 ± 0.35; “TAATTAATATATTTTTGTACTTATATATTTGCGTAT [XGTACX_site340]”: 8.45 ± 0.38; “TTATAATATATATGTGGTACTTATTTATTTATTTAT [XGTACX_site7572]”: 8.24 ± 0.4. The result for “ATTTTTGATTTTAAAAGTACATAAGTATACTATTTA [XGTACX_site7162]” reads 8.37 ± 0.25; that for “TTTTGTAATTTTGTATGTACACATTAAAGTAATATG [XGTACX_site2401]”, 8.55 ± 0.37. Take “AAAATTCTTCGGGGGAGTACAAGGATATTCTACGTT [XGTACX_site3974]”: the “gcPBM binding intensity (ln)” value is 9.69 ± 0.41. Next, “TACATATAAATAATAACACACACCTAGGTACATGGA [CACACA_site838]”: 8.68 ± 0.52; “TTTAAAAAAAATATGTGTACTTAATATTTTCATATA [XGTACX_site7421]”: 8.22 ± 0.11. The result for “AGAAAGGAGGAAATAAAAGGACTTCTTTTTTTATAT [CACACA_negctrl_site810]” reads 8.2 ± 0.42. The result for “CATACACAGAAACACACACACATATATATATATATA [CACACA_site4519]” reads 10.1 ± 0.37.

Consider “ATTCATATCTACTTCACACACATTTGATCATTCAAA [CACACA_site7207]”, for which the “gcPBM binding intensity (ln)” value came out at 8.9 ± 0.47. For “AAAATCTATATTAACACACACACAAAAAAAAAAAAA [CACACA_site6738]”, the “gcPBM binding intensity (ln)” value was found to be 8.41 ± 0.52. Next, “ATGAAACAGTAACATTGTACTTTTACAAAAAAATAA [XGTACX_site806]”: 8.41 ± 0.38; “ATAGTATTTTTTATTACACACAAATAAAAAGAAAAA [CACACA_site2087]”: 8.48 ± 0.46. Next, “ATCTTTCGTACATGTACACACAGAAAAAAAAAAAAA [CACACA_site2502]”: 8.62 ± 0.54. With “GTGTAATCATATAAGGGTACAAAAAATGTCTAACAA [XGTACX_site8122]”, the “gcPBM binding intensity (ln)” value worked out at 8.84 ± 0.61.

For “GTTCCCATAAATAAATGTACATATTATATATATATA [XGTACX_site3242]”, the “gcPBM binding intensity (ln)” value worked out at 9.73 ± 0.12.

On to “ATAAATAAAACAAAATGTACAAATATTCATATATTC [XGTACX_site1307]”, for which the “gcPBM binding intensity (ln)” value is 8.49 ± 0.32. The result for “ATATATATATATGTTAGTACTTATATTGAAATGGTA [XGTACX_site1406]” reads 10.1 ± 0.18; that for “ATTTTTTTTTTTTTTGAACACACATTATTAATTTTT [CACACA_site7990]”, 8.41 ± 0.45. Next, “ATATATTTTATATAGTGTACTTTAATTTTTTTTTTT [XGTACX_site5550]”: 8.23 ± 0.34; “TTTCATTTCACAGACACACACACACCCTATATTTCC [CACACA_site3906]”: 8.88 ± 0.5; “TTATTTACCTATTATAGTACATATAATTAATATAAT [XGTACX_site5724]”: 8.41 ± 0.24. Next, “ATTAAAAAATCCATAGTGCACTACGATAGGTTCCGA [GTGCAC_site9463]”: 9.09 ± 0.16.
